Paper PMC4336329 (PLoS ONE, 2015)
Out of some 310,000 compounds screened, about 14,000 (4.5%) showed an effect of 50% or more. The effect is printed as a negative number. The list shows a part of the results.

molecular target: human ether-à-go-go-related gene (hERG) potassium channel (human, UniProt Q12809); assay: primary screen, population patch clamp on CHO cells stably expressing hERG
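Also: peak tail current of the secondary pulse compared with the same well before compound.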

human ether-à-go-go-related gene (hERG) potassium channel, sequence (Q12809 whole entry, looked up): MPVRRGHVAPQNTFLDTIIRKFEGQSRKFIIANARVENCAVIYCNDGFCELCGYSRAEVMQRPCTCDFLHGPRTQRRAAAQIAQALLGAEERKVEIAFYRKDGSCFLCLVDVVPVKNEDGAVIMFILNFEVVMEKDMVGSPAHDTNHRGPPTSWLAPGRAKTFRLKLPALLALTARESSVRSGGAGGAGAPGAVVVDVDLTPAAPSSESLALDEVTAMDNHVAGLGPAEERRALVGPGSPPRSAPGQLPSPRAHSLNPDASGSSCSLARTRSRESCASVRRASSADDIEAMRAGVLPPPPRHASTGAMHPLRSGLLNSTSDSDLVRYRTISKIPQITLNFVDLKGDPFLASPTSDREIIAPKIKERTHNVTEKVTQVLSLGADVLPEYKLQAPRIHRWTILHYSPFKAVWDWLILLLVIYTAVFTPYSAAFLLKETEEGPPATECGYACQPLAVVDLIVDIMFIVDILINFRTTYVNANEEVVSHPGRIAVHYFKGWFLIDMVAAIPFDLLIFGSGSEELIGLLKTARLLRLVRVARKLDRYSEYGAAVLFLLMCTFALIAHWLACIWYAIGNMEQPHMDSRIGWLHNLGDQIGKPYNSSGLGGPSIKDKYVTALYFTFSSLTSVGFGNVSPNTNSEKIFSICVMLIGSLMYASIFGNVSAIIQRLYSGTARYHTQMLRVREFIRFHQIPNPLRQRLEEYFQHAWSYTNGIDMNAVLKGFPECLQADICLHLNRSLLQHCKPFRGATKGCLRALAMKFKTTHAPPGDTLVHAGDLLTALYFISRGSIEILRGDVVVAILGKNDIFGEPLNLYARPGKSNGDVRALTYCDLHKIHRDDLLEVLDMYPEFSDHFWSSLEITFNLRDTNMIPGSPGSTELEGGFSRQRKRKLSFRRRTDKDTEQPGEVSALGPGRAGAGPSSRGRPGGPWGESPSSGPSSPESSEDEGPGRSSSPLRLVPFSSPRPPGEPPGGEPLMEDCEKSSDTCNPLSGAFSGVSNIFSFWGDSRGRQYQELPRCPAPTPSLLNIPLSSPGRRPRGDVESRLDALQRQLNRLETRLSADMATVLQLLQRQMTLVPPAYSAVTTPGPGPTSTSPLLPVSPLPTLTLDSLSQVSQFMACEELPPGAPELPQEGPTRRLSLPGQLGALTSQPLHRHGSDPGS

Compared with `COc1cc(CC(=O)OCC(=O)NC2CC2)cc(OC)c1OC`, `COc1ccc2c(c1OC)C(=O)OC2CC(=O)O` (centres unmarked) is higher in “hERG current change (%, negative = inhibition) at 10uM” value: 10.4% for the first, 15.8% for the second.

Compared with `COc1cccc(OC)c1C(=O)Nc1cccc(-n2cnnn2)c1`, `O=C(CC1(O)C(=O)Nc2ccccc21)c1ccc(-n2cnnn2)cc1` (centres unmarked) is higher in “hERG current change (%, negative = inhibition) at 10uM” value: 15.7% for the first, 20.5% for the second.

Going from `C=C1C[C@@]23CCC4[C@@](C)(CCC[C@@]4(C)C(=O)O)C2CC[C@]1(O)C3` (some centres unmarked) to `CC(NC(=O)COC(=O)CNC(=O)c1ccccc1Cl)C1CC2CCC1C2` (centres unmarked), the “hERG current change (%, negative = inhibition) at 10uM” value falls from 7.01% to -7.14%.

Compared with `COc1ccc(Cl)cc1S(=O)(=O)Nc1ccncc1`, `COc1ccc(C(=O)Nc2ccc3c(c2)C(=O)NC3=O)cc1` is lower in “hERG current change (%, negative = inhibition) at 10uM” value: 19.3% for the first, 1.7% for the second.

Going from `Br.COc1ccc(C2=CSC3=NCCN23)cc1` to `COc1ccc(-n2nc3c(c2NC(=O)C(C)C)CSC3)cc1`, the “hERG current change (%, negative = inhibition) at 10uM” value rises from -6.09% to 14.9%.

Going from `COc1cccc(C(=O)C2CCCN(C/C=C/c3ccccc3OC)C2)c1` (centres unmarked) to `CCn1ccnc1CN1CCCC(C(=O)c2ccc3cc(OC)ccc3c2)C1` (centres unmarked), the “hERG current change (%, negative = inhibition) at 10uM” value falls from -68.4% to -70.6%.

First: CCOC(=O)C1C(c2cccc([N+](=O)[O-])c2)C2C(=O)NN=C2CC1(C)O (centres unmarked)
Second: O=C1CC(NS(=O)(=O)c2ccc([N+](=O)[O-])cc2)CN1c1cccc(F)c1 (centres unmarked)
The “hERG current change (%, negative = inhibition) at 10uM” value of the first is higher: 18.2% for the first, -39.4% for the second.

First: Cc1ccc(-c2csc(Nc3ccc(C(=O)O)cc3)[n+]2Cc2ccccc2)cc1.[Br-]
Second: Cc1ccc(NC(=O)N2CCC(C(=O)NCc3ccccc3)CC2)cc1
The “hERG current change (%, negative = inhibition) at 10uM” value of the first is higher: 11% for the first, -22% for the second.

Going from `Cc1ccc(NC(=S)N2CCN(C3CCCCC3)CC2)cc1` to `Cc1ccc(NC(=O)N2CCCCCC2)cc1C`, the “hERG current change (%, negative = inhibition) at 10uM” value rises from -13.2% to 10.9%.

Going from `O=C(Nc1nnc(S(=O)(=O)N2CCOCC2)s1)c1cccc(Br)c1` to `CCOC(=O)c1c(-c2ccccc2)csc1NC(=O)c1cc(S(=O)(=O)N2CCOCC2)ccc1C`, the “hERG current change (%, negative = inhibition) at 10uM” value falls from 16.6% to 2.23%.

Compared with `CC1(C)CC(Nc2ccc(Nc3ccccc3)cc2)CC(C)(C)N1`, `COc1ccc(-n2cc(-c3ccccc3)c3c(=S)nc[nH]c32)cc1` is higher in “hERG current change (%, negative = inhibition) at 10uM” value: -4.89% for the first, 8.07% for the second.

First: CCOC(=O)C1=C(c2ccccc2)O/C(=C(\C(=O)OC)C(F)(F)F)S1
Second: Cc1cccc(Nc2ccccc2C(=O)OCC(=O)N2CCOCC2)c1C
The “hERG current change (%, negative = inhibition) at 10uM” value of the first is higher: 7.86% for the first, 4.33% for the second.

First: CN1CCN(C(=O)C2=C[C@@H](c3csc4ccccc34)C[C@@H](OCCCCO)O2)CC1
Second: CCOC(=O)N1CCN(c2nc(-c3cccs3)nc3ccccc23)CC1
The “hERG current change (%, negative = inhibition) at 10uM” value of the first is lower: -20.2% for the first, -1.74% for the second.

First: CC1N(C)c2cc(NC(=O)c3cccs3)c(P(=O)(Nc3ccc([N+](=O)[O-])cc3)N3CCOCC3)cc2C1(C)C (centres unmarked)
Second: COc1ccc(NC(=O)c2sc(N3CCOCC3)nc2-c2ccccc2)c(OC)c1
The “hERG current change (%, negative = inhibition) at 10uM” value of the first is higher: 12.2% for the first, -44.3% for the second.

First: C=CCSc1nnc(CNC(=O)c2ccccc2C)n1C(C)C
Second: Cc1ccc(C(=O)CSc2nnc(Cn3nnc4ccccc43)n2C)cc1
The “hERG current change (%, negative = inhibition) at 10uM” value of the first is higher: 5.68% for the first, -6.97% for the second.

Going from `C=CCN(C(=O)Nc1ccc2oc(C)nc2c1)c1ccccc1` to `Cc1ccc2nc(/C(C#N)=C/c3ccc(-c4ccccc4C(=O)O)o3)[nH]c2c1`, the “hERG current change (%, negative = inhibition) at 10uM” value rises from -10% to 19.8%.

First: O=C(CCN1C(=O)c2ccccc2C1=O)NCCC1=CCCCC1
Second: Cn1ccnc1SCC(=O)n1c2c(c3ccccc31)CCCC2
The “hERG current change (%, negative = inhibition) at 10uM” value of the first is lower: -8.94% for the first, -4.61% for the second.

Compared with `CC(CC(=O)O)C(=O)c1ccc(Cl)c([N+](=O)[O-])c1` (centres unmarked), `CC(=O)N1CCN(c2ccc([N+](=O)[O-])c(NCc3cccnc3)c2)CC1` is lower in “hERG current change (%, negative = inhibition) at 10uM” value: 26.2% for the first, -22.3% for the second.

Compared with `O=C(NC1=NCCS1)c1ccc(Cl)c(S(=O)(=O)N2CCCCC2)c1`, `CCc1sc(C(=O)Nc2cc(Cl)ccc2N2CCCCC2)cc1C` is lower in “hERG current change (%, negative = inhibition) at 10uM” value: -2.52% for the first, -2.72% for the second.

Going from `Cc1ccc(S(=O)(=O)N2CCCN(C(=O)CNC(=O)c3cccc(C)c3)CC2)cc1` to `COc1ccc(OC)c2[nH]c(=O)c(CCNC(=O)c3ccc(S(=O)(=O)N4CCCC4)cc3)cc12`, the “hERG current change (%, negative = inhibition) at 10uM” value rises from -54.3% to -17.3%.

Compared with `O=C(COC(=O)c1ccc(NS(=O)(=O)c2cccs2)cc1O)Nc1ccc(F)cc1`, `CCCNC(=O)COC(=O)c1ccccc1OCC(=O)Nc1ccc(Br)cc1` is higher in “hERG current change (%, negative = inhibition) at 10uM” value: 8.05% for the first, 15.2% for the second.

First: COc1ccc(NC(=S)NNC(=O)Cn2nc(C(F)F)cc2C(F)F)cc1
Second: COC(=O)CCC(=O)Nc1ccc(S(=O)(=O)Nc2cc(OC)nc(OC)n2)cc1
The “hERG current change (%, negative = inhibition) at 10uM” value of the first is higher: 13.4% for the first, 8.49% for the second.

Going from `CC(C)(C)OC(=O)N/N=C/c1cc(N=Nc2ccccc2)ccc1O` to `O=C(N/N=C/c1cc(Br)cs1)c1c[nH]c2ccccc12`, the “hERG current change (%, negative = inhibition) at 10uM” value falls from 15.1% to 5.35%.

Going from `CC(CCc1ccccc1)NCCC#N.Cl` (centres unmarked) to `CC(C)N1CCN(CCCc2ccccc2)CC1CCO` (centres unmarked), the “hERG current change (%, negative = inhibition) at 10uM” value falls from 16.5% to -4.39%.

Going from `O=C(/C=C/c1ccco1)Nc1ccccn1` to `NC(=O)/C=C/C(=O)Nc1ccc(Cl)cc1`, the “hERG current change (%, negative = inhibition) at 10uM” value rises from 5.98% to 6.1%.

Going from `CC(=O)N=C1SC2CS(=O)(=O)CC2N1Cc1ccc(C)cc1` (centres unmarked) to `CC(=O)c1ccc(S(=O)(=O)N2CCN(CC#N)CC2)cc1`, the “hERG current change (%, negative = inhibition) at 10uM” value falls from 1.2% to -2.7%.

Compared with `Cc1c(CC(=O)O)c(=O)oc2cc3occ(-c4ccccc4)c3cc12`, `CCOc1ccccc1Oc1c(C)oc2cc(OC(=O)c3ccco3)ccc2c1=O` is lower in “hERG current change (%, negative = inhibition) at 10uM” value: -1.59% for the first, -7.03% for the second.

First: CN(Cc1cc2cc(F)ccc2[nH]1)Cc1nc(-c2cnccn2)no1
Second: Cc1ccc(NC(=S)N(CCN2CCOCC2)Cc2cc3cc4c(cc3[nH]c2=O)OCO4)cc1
The “hERG current change (%, negative = inhibition) at 10uM” value of the first is higher: -7.5% for the first, -21% for the second.

First: CC(C)CC(C)c1cc(N)nc2nc3ccccc3n12 (centres unmarked)
Second: COc1ccc(CCNC(=O)[C@H](CC(C)C)NC(=O)N2CCn3c2nc2ccccc23)cc1OC
The “hERG current change (%, negative = inhibition) at 10uM” value of the first is lower: -48.3% for the first, 4.33% for the second.

Going from `COCCn1c(SCC(=O)Nc2sccc2C(N)=O)nnc1-c1ccncc1` to `Cc1nnc(NC(=O)CSc2cn(Cc3ccccc3)c3ccccc23)s1`, the “hERG current change (%, negative = inhibition) at 10uM” value falls from 5.7% to -10.9%.

First: Oc1ccc(/C=N/N2CCN(C3c4ccccc4-c4ccccc43)CC2)cc1O
Second: COc1ccc(C2CC(c3ccc4ccccc4c3OC(C)=O)=NN2C(=O)/C=C/c2ccccc2)cc1 (centres unmarked)
The “hERG current change (%, negative = inhibition) at 10uM” value of the first is higher: 9.43% for the first, -0.389% for the second.

Going from `Cc1ccc(S(=O)(=O)CCc2nnc(NC(=O)CCl)s2)cc1C` to `O=C(NCCCn1ccnc1)c1sc2cccc(F)c2c1Cl`, the “hERG current change (%, negative = inhibition) at 10uM” value falls from -27.2% to -37.3%.

Going from `CC(C)=C(NC(=O)c1ccccc1)C(=O)NCc1ccccc1` to `CCN(CCCNC(=O)Cn1ncc2c([nH]c3ccccc32)c1=O)Cc1ccccc1`, the “hERG current change (%, negative = inhibition) at 10uM” value falls from 9.27% to -67%.

First: O=C1CCCCC1Oc1ccc2ccc(=O)oc2c1 (centres unmarked)
Second: COc1ccc(OCc2nnc(SCC(=O)NC3CCCCC3)o2)cc1
The “hERG current change (%, negative = inhibition) at 10uM” value of the first is higher: 19.6% for the first, -5.19% for the second.

First: Cc1nc2ncnn2c(C)c1Cc1ccc(Cl)cc1
Second: Cc1nn(C)c(C)c1N1C(=O)c2cccc3c(N)ccc(c23)C1=O
The “hERG current change (%, negative = inhibition) at 10uM” value of the first is lower: -8.29% for the first, 0.353% for the second.

First: O=c1[nH]c(=S)n(C2CC2)c(O)c1/C=N/N1CCOCC1
Second: C1CN(c2nc3nonc3nc2N2CCOCC2)CCO1
The “hERG current change (%, negative = inhibition) at 10uM” value of the first is lower: 1.22% for the first, 20.2% for the second.

First: Cc1cc(OCCOCCNC(C)C)cc(C)c1Cl.O=C(O)C(=O)O
Second: CCCOc1ccc(NC(=O)CC2C(=O)Nc3ccccc3N2CC(=O)N2CCCC2)cc1 (centres unmarked)
The “hERG current change (%, negative = inhibition) at 10uM” value of the first is lower: -47.3% for the first, 4.48% for the second.

First: O=C1C2CCCN2C(c2cccs2)N1c1ccc(Cl)cc1 (centres unmarked)
Second: Cc1ccc(C)c(N2N=C(C(=O)Nc3ccccc3N3CCCC3)CCC2=O)c1
The “hERG current change (%, negative = inhibition) at 10uM” value of the first is lower: 3.41% for the first, 3.97% for the second.

Compared with `O=C1/C(=C\c2ccc(Br)o2)Cc2ccccc21`, `COc1ccccc1CNC(=O)COc1cc2c(c3oc(=O)cc(C)c13)CCC(C)(C)O2` is lower in “hERG current change (%, negative = inhibition) at 10uM” value: 2.56% for the first, -18.6% for the second.

Going from `CCCCN(C)C(=O)c1nc2ccccn2c1CN1CCN(c2ccccn2)CC1` to `CN(CC1CCCN(CCc2ccc(F)cc2)C1)C(=O)CCC(N)=O` (centres unmarked), the “hERG current change (%, negative = inhibition) at 10uM” value falls from -7.16% to -23.9%.

Going from `CC1(C)CC(=O)C/C(=N\NC(=O)C2CC2c2ccccc2)C1.I` (centres unmarked) to `CC(NC(=O)c1ccccc1F)C1CC1` (centres unmarked), the “hERG current change (%, negative = inhibition) at 10uM” value falls from 30.2% to 3.09%.

First: CC(C)Cc1ccc(C(C)C(=O)Nc2ncccn2)cc1 (centres unmarked)
Second: CC(Oc1ccc(C#N)cc1)C(=O)c1ccc(F)c(F)c1 (centres unmarked)
The “hERG current change (%, negative = inhibition) at 10uM” value of the first is higher: 2.64% for the first, -51.6% for the second.

First: O=C(CN1C(=O)NC2(CCCC2)C1=O)Nc1ccc(OC(F)(F)F)cc1
Second: NC(=O)c1c(NC(=O)c2ccco2)sc2c1CCC2
The “hERG current change (%, negative = inhibition) at 10uM” value of the first is lower: -6.46% for the first, -3.83% for the second.

Going from `Cc1ccc(S(=O)(=O)Nc2ccccc2C(=O)Nc2sccc2C(=O)NN(C)C)cc1` to `COCC(=O)Nc1ccccc1C#N`, the “hERG current change (%, negative = inhibition) at 10uM” value rises from -40.2% to 10.6%.

`Cc1cccc(Nc2nc(NCC3CCCO3)nc(N)c2[N+](=O)[O-])c1` (centres unmarked) was tested, and the “hERG current change (%, negative = inhibition) at 10uM” value was -16%.
